{
  "source": "PubChem BioAssay AID651820",
  "about": "(National Center for Advancing Translational Sciences (NCATS), 2012)",
  "note": "Hit rate of the full screen: of about 340,000 compounds, about 12,000 (3.5%) were called active. The shares of active, inactive and inconclusive entries below differ from those in the screen. Calls follow the shape of the dose curve; as a rule, active = well fitted inhibition curve with a large enough effect; inconclusive = small, poorly fitted or top-dose-only effect, or another doubt; inactive = no such curve, though single readings can be large or run the other way. Potencies of inconclusive entries are left out as doubtful fits. % is scaled to controls: 0 for no effect and ±100 for the full control effect; potency is read from the fitted curve at half-maximal effect; tags tell the direction and shape of the fitted curve.",
  "data": [
    {"test": "qHTS Assay for Inhibitors of Hepatitis C Virus (HCV)", "conditions": "Huh7.5.1 HCVcc-Cre (HCVcc is cell-culture hepatitis C virus) infection, luciferase reporter, 44 h; activity change, negative = inhibition: at 41.8 µM (top of the series) unless noted", "method_in_brief": "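A cell-based infection assay in which seeded cells (1,000 per well) receive test compound after 4 h, are inoculated with HCVcc-Cre at approximately 0.5 moi, and are incubated 44 h before luminescence detection.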", "values": [
      {"molecule": "CN=C1c2c(-c3ccccc3)c3cc(OC)ccc3n2CCN1C", "Potency": "inconclusive [inhibitor, single point]"},
      {"molecule": "O=C(N1CCOCC1)n1nnc2ccccc21", "activity change, negative = inhibition": "inactive: 24.2%"},
      {"molecule": "Cc1cc2c([nH]c3ccccc32)c(C)n1", "Potency": "inconclusive [inhibitor, single point]"},
      {"molecule": "COc1ccc(NC(=O)CN2CCCC2)cc1", "activity change, negative = inhibition": "inactive: 3.2%"},
      {"molecule": "O=C1ON=C(c2ccc(Cl)cc2)/C1=C/c1ccc(O)cc1", "Potency": "inconclusive [inhibitor, single point]"},
      {"molecule": "Cc1csc(NC(=O)COc2ccc3c(c2)CCC3)n1", "activity change, negative = inhibition": "inactive: -5.77%"},
      {"molecule": "COc1cc(C2c3[nH]c4ccccc4c3C[C@H]3C(=O)N(C4CC4)CC(=O)N23)ccc1OC(C)C", "note": "(stereo not given in full)", "activity change, negative = inhibition": "inactive: 1.67%"},
      {"molecule": "COCCN(C(=O)c1cccc(N2C(=O)CCC2=O)c1)c1nc(-c2ccc([N+](=O)[O-])cc2)cs1", "Potency": "inconclusive [inhibitor, single point]"},
      {"molecule": "O=C1Nc2ccc(Br)cc2/C1=N/N=C/C1=C(N2CCOCC2)C(=C\\c2ccccc2)/CC1", "Potency": "inconclusive [inhibitor, single point]"},
      {"molecule": "CC(C)Cc1ccc(C(C)C(N)=Nc2ccc(O)cc2)cc1", "note": "(stereo not given)", "Potency": "inconclusive [inhibitor, single point]"},
      {"molecule": "CC(C)c1ccc(/C=C2\\SC(=O)N(CC(=O)NC3C=CS(=O)(=O)C3)C2=O)cc1", "note": "(stereo not given)", "activity change, negative = inhibition": "inactive: -5.68%"},
      {"molecule": "CC1=NN(Cc2ccccc2)C(=O)C1C(c1ccc(Cl)cc1)C(C#N)C#N", "note": "(stereo not given)", "activity change, negative = inhibition": "inactive: 3.45%"},
      {"molecule": "CCN(CC)S(=O)(=O)c1ccc(N2CCCC2)c(NC(=O)Cc2cc(OC)c(OC)c(OC)c2)c1", "Potency": "inconclusive [inhibitor, partial curve]"},
      {"molecule": "CC(=O)Nc1ccc(-c2csc(Nc3cc(C)ccn3)n2)cc1", "Potency": "inconclusive [inhibitor, full curve]"},
      {"molecule": "Cc1cccc(NC(=S)N2CCC(C(=O)c3ccc(F)cc3)CC2)c1", "activity change, negative = inhibition": "inactive: 1.19%"},
      {"molecule": "NC(=O)c1cn(C2OC(CO)C(O)C2O)c2ncnc(N)c12", "note": "(stereo not given)", "Potency": "inconclusive [inhibitor, partial curve, poor fit]"},
      {"molecule": "CCc1cccc(NC(=O)C2CCCN(c3ncnc4c3nc3n4CCCCC3)C2)c1", "note": "(stereo not given)", "Potency": "active: 11.2 µM"},
      {"molecule": "O=C(CCc1c[nH]c2ccccc12)NCCc1ccc(Cl)cc1", "Potency": "inconclusive [inhibitor, partial curve]"},
      {"molecule": "O=C(CSc1ccc(S(=O)(=O)N2CCOCC2)cn1)Nc1ccc(OC(F)F)cc1", "activity change, negative = inhibition": "inactive: 5.91%"},
      {"molecule": "C#CCNc1c2c(nc3ncnn13)CC(C)CC2", "note": "(stereo not given)", "activity change, negative = inhibition": "inactive: -13.4%"},
      {"molecule": "Cc1cc(C(=O)N/N=C/c2cc(Br)cc(Br)c2OC(=O)c2ccccc2)n[nH]1", "activity change, negative = inhibition": "inactive: 1.08%"},
      {"molecule": "Nc1nonc1-n1nnc(C(=O)N/N=C/c2ccc(F)cc2)c1-c1ccc2c(c1)OCO2", "activity change, negative = inhibition": "inactive: 4.73%"},
      {"molecule": "O=C(CCC(=O)N1CCOc2ccccc21)NCCc1ccccc1", "activity change, negative = inhibition": "inactive: 12%"},
      {"molecule": "CCCCNC(=O)CNC(=O)c1cccs1", "activity change, negative = inhibition": "inactive: 14.3%"},
      {"molecule": "CCC(=NCCc1c(C)[nH]c2ccc(OC(F)(F)F)cc12)C1=C(O)CC(c2ccccc2)CC1=O", "note": "(stereo not given)", "Potency": "inconclusive [inhibitor, partial curve]"},
      {"molecule": "CN(C(=O)Nc1ccc(Cl)cc1Cl)[C@H]1c2cc(Br)ccc2OC[C@H]1CO", "Potency": "active: 12.6 µM"},
      {"molecule": "CN1CCN(C2=CC3=CC(=C(C#N)C#N)CCC3CC2)CC1", "note": "(stereo not given)", "Potency": "inconclusive [inhibitor, partial curve, poor fit]"},
      {"molecule": "N#CC1=C(N)Oc2c(ccc3cccnc23)C1c1ccccc1", "note": "(stereo not given)", "Potency": "inconclusive [inhibitor, full curve]"},
      {"molecule": "COc1cccc(-c2cc3c(-n4cccc4)ncnc3o2)c1", "Potency": "inconclusive [inhibitor, partial curve]"},
      {"molecule": "O=C(NCCc1ccccc1)C1CCN(C2CCN(C(=O)CC3=CCCCC3)CC2)CC1", "Potency": "inconclusive [inhibitor, single point]"},
      {"molecule": "Cc1ccc(C(=O)OC(C)C(=O)NC2CCCCC2)cc1S(=O)(=O)N1CCCCC1", "note": "(stereo not given)", "Potency": "inconclusive [inhibitor, single point]"},
      {"molecule": "O=C(NCCC1CCCCN1S(=O)(=O)c1ccccc1)C(=O)NC1CC1", "note": "(stereo not given)", "activity change, negative = inhibition": "inactive: 0.921%"},
      {"molecule": "Cc1ccn2cc(CCNS(=O)(=O)c3ccc4ccccc4c3)nc2c1", "activity change, negative = inhibition": "inactive: 25.6%"},
      {"molecule": "COc1ccc(NC(=O)Nc2cccc3c2O[C@H](CN(C)C(=O)Nc2c(C)noc2C)[C@@H](C)CN([C@H](C)CO)C3=O)cc1", "Potency": "inconclusive [inhibitor, single point]"},
      {"molecule": "CN(C(=O)CSc1nc2[nH]ncc2c(=O)[nH]1)c1ccccc1", "activity change, negative = inhibition": "inactive: -20.1% [at 8.37 µM]"},
      {"molecule": "CCOC(=O)N1CCN(C(=O)C(=O)Nc2ccc3nc4n(c(=O)c3c2)CCCCC4)CC1", "Potency": "inconclusive [inhibitor, single point]"},
      {"molecule": "Cc1ccccc1N1CCN(C(=S)c2ccc(-c3cccc([N+](=O)[O-])c3)o2)CC1", "Potency": "inconclusive [inhibitor, single point]"},
      {"molecule": "O=C(c1cccc(Cl)c1)N1CCC2CC1c1cc(N3CCOCC3)ccc12", "note": "(stereo not given)", "Potency": "inconclusive [inhibitor, single point]"},
      {"molecule": "Oc1ccccc1CN1CCN(C(c2ccccc2)c2ccccc2)CC1", "Potency": "inconclusive [inhibitor, single point]"},
      {"molecule": "CCC1CN(C(=O)NCc2ccc(F)cc2)c2cc(C)ccc2O1", "note": "(stereo not given)", "Potency": "inconclusive [inhibitor, partial curve]"},
      {"molecule": "CC(=O)COc1ccc2c3c(c(=O)oc2c1C)CCCCC3", "Potency": "active: 11.2 µM"},
      {"molecule": "CCOc1cc(C(=S)N2CCOCC2)ccc1OC(=O)c1cc(OC)c(OC)c(OC)c1", "Potency": "inconclusive [inhibitor, partial curve]"},
      {"molecule": "COc1ccc(S(=O)(=O)Nc2cccc(-c3ccc(N4CCCCCC4)nn3)c2)cc1OC", "Potency": "inconclusive [inhibitor, single point]"},
      {"molecule": "COc1ccc(-n2ncc3c(NC(C)C)ncnc32)cc1", "Potency": "inconclusive [inhibitor, single point]"},
      {"molecule": "O=C(C(=O)c1cc(Br)ccc1O)c1cc(Br)ccc1O", "Potency": "inconclusive [inhibitor, single point]"}
    ]}
  ]
}
